# About 340 (0.77%) of roughly 44,000 compounds were called active. Roughly 5% stayed inconclusive and do not appear here. Calls follow the shape of the dose curve; as a rule, active = well fitted inhibition curve with a large enough effect; inconclusive = small, poorly fitted or top-dose-only effect; inactive = flat fitted curve, though single readings scatter. The list shows a part of the results.
# Test: Acumen qHTS Assay for Inhibitors of the mTORC1 Signaling Pathway in MEF (Tsc2-/-, p53-/-) Cells: Sytravon;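 also: plate controls were DMSO for no effect and rapamycin for full effect; nearly all actives have a fitted effect of over 50% in size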
# Conditions: phospho-rpS6 immunofluorescence/PI, 24 h; series mostly up to 38.3 µM; activity change, negative = inhibition: at the top concentration
# Summary of the method: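 Plate MEFs (Tsc2-/-, p53-/-, empty vector) in DMEM/10% FBS; after 24 h add compound, incubate 24 h at 37 degree Celsius; fix in PFA/TX-100, block, stain phospho-rpS6 and 10 uM PI; scan at 488 nm; report % positive cells.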
row,Compound,"activity change, negative = inhibition"
1,COc1ccc(-c2nc3c4cnn(-c5ccccc5F)c4ncn3n2)cc1,inactive: -8.45%
2,CC(=O)Nc1ccc(NS(=O)(=O)c2ccc3c(c2)CC(C)N3C(=O)C2CCC2)cc1 (centres undefined),inactive: -8.42%
3,COC(=O)CC1Oc2ccc(F)cc2-n2cc(-c3ccc(Cl)cc3)nc21 (centres undefined),inactive: -35.7%
4,COc1ccc(NC(=O)CN2CCCN(S(=O)(=O)c3ccc(Br)cc3)CC2)c(OC)c1,inactive: 1.39%
5,CCOC(=O)c1ccc(NC(=O)CCS(=O)(=O)c2ccc(C)cc2)cc1,inactive: -3.09%
6,Cc1cccc(-c2nc(CCNC(=O)c3ccco3)cs2)c1,inactive: -3.36%
7,Cc1ccc2oc(C(=O)Nc3ccc(S(=O)(=O)N4CCCCCC4)cc3)cc(=O)c2c1,inactive: 5.82%
8,CCOC(=O)c1cc(C)n(CC2CCC(C(=O)Nc3ccc(OC)c(OC)c3)CC2)c1C (centres undefined),inactive: -7.65%
9,CCc1ccc(NC(=O)c2sc(-n3nc(C)c(Cc4ccc5c(c4)OCO5)c3C)nc2C)cc1,inactive: -0.368%
10,Cc1cc(C)cc(NS(=O)(=O)c2c(C)nc3scc(C)n3c2=O)c1,inactive: 0.346%
11,CCOc1ccccc1NC(=O)Cn1c(=O)n(-c2ccc(C)c(C)c2)c(=O)c2oc3ccccc3c21,inactive: -1.34%
12,O=C(Oc1ccccc1F)c1nc(SCc2ccccc2F)ncc1Cl,inactive: 2.81%
13,COc1ccccc1NC(=O)Cn1nc2c3cc(F)ccc3n(Cc3cccc(C)c3)cc-2c1=O,inactive: -0.988%
14,CCN1CCC(N(Cc2ccc3c(c2)OCO3)C(=O)Nc2cccc(C)c2C)CC1,inactive: -19.7%
15,COc1ccc(Nc2ncc3c(n2)CCN(Cc2cccc(F)c2F)C3)c(OC)c1,inactive: 0%
16,CC(=O)N1CCCc2cc(S(=O)(=O)NCc3ccccc3Cl)ccc21,inactive: -8.42%
17,CCN(Cc1ccccc1)C(=O)C1CCC(CNS(=O)(=O)c2ccc3c(c2)CCCC(=O)N3)CC1 (centres undefined),inactive: -4.54%
18,Cc1ccc(C)c(NC(=O)c2cc(S(=O)(=O)N3CCN(c4cccc(Cl)c4)CC3)ccc2F)c1,inactive: 11.4%
19,CCc1ccc(Nc2nc3c(S(=O)(=O)c4ccc(C)cc4)nnn3c3ccsc23)cc1,inactive: -11.2%
20,Cc1ccc(S(=O)(=O)c2nnn3c2nc(N2CCCC(C)C2)c2cc(Cl)ccc23)cc1C (centres undefined),inactive: 0.605%

row,Compound,"activity change, negative = inhibition"
1,CCN(C(=O)Cn1cc(S(=O)(=O)N2CCN(c3ccccc3F)CC2)c2ccccc2c1=O)c1ccc(C)c(C)c1,inactive: 3.33%
2,Cc1ccc(NC(=O)Cn2c(=O)n(-c3ccccc3)c(=O)c3ccc(C(=O)NCc4ccc5c(c4)OCO5)cc32)cc1,inactive: -9.18%
3,Oc1c(C(c2ccccc2Cl)N2CCC(O)CC2)sc2nc(-c3ccco3)nn12 (centres undefined),inactive: -0.303%
4,CCOc1ccc(S(=O)(=O)NCc2ccc3c(c2)CCN3C(=O)c2ccc(C)cc2)cc1,inactive: 6.11%
5,COc1ccc(S(=O)(=O)Nc2cc(-c3cn4ccc(C)cc4n3)ccc2C)cc1OC,inactive: 3.32%
6,Cc1nnc2c3ccccc3nc(Nc3ccccc3C(=O)O)n12,inactive: 2.95%
7,CCn1ccc2cc(S(=O)(=O)N3CCC(C(=O)NCC(C)c4ccccc4)CC3)ccc21 (centres undefined),inactive: -7.59%
8,O=C(COc1ccc(Cl)cc1)Nc1ccc2nc(SCC(=O)N3CCOCC3)sc2c1,inactive: -9.88%
9,Cc1ccc(NC(=O)CSc2nc3ccccc3nc2Cc2ccccc2)c(Cl)c1,inactive: -20.4%
10,Cc1ccc(Cl)cc1NC(=O)c1nnn(Cc2ccccc2)c1N,inactive: -3.9%
11,Cc1ccc(-n2ncc(C(=O)NCc3ccccn3)c2C2CCN(C(=O)OC(C)(C)C)CC2)cc1C,inactive: 2.41%
12,COc1cccc(CNC(=O)C2CCN(Cc3cc4ccccc4n3Cc3ccccc3)CC2)c1OC,inactive: -7.08%
13,Cc1ccc(CN2c3ccccc3-c3nc(SCC(=O)NCCc4ccccc4)ncc3S2(=O)=O)cc1,inactive: 6.35%
14,CCOC(=O)c1cccc(NC(=O)CSc2cc(=O)n(C)c3ccccc23)c1,inactive: 4.67%
15,O=C(Nc1ccc(C(F)(F)F)cc1)c1cc(S(=O)(=O)N2CCCc3ccccc32)ccc1F,inactive: -4.15%
16,CCOC(=O)c1ccc(Oc2nc(C)nc3c2oc2ccccc23)cc1,inactive: -0.0667%
17,Cc1nnsc1C(=O)Oc1ccc(C#N)cc1,inactive: -9.12%
18,O=C(/C=C/c1ccccc1)Nc1nc2n(n1)C(c1ccc(Cl)cc1)C=C(c1ccccc1)N2 (centres undefined),inactive: 4.34%
19,Clc1ccc(CN2CCc3nc(N4CCN(c5ccccn5)CC4)ncc3C2)cc1,inactive: 0%
20,O=C(CN1C(=O)C2(SCC(=O)N2c2cccc(F)c2)c2ccccc21)NCc1ccccc1Cl (centres undefined),inactive: -6.34%

row,Compound,"activity change, negative = inhibition"
1,CCCOc1ccc(NC(=O)CC2C(=O)N(c3ccc(OC)cc3)C(=O)N2CCc2ccncc2)cc1 (centres undefined),inactive: -10%
2,CCc1nc2ccccc2n1CCCCOc1cccc(C)c1,inactive: -6.42%
3,CCOC(=O)c1cc(-c2ccccc2)n(CCCC(=O)Nc2cccc(C)c2)c1C,inactive: -1.14%
4,CC(C)CC(=O)NCC(c1ccc2c(c1)OCO2)N1CCN(c2ccc(F)cc2)CC1 (centres undefined),inactive: -8.43%
5,CC(C)(C)c1ccc(S(=O)(=O)c2cnc(SCC(=O)Nc3ccc4c(c3)OCCO4)[nH]c2=O)cc1,inactive: 1.09%
6,COc1cccc2c1cc1c(=O)n(CC(=O)N3CCN(c4ccc(F)cc4)CC3)nc(C)n12,inactive: -1.61%
7,CCCS(=O)(=O)c1nc(S(=O)(=O)c2ccc(C)cc2)c(NCCCOC(C)C)s1,inactive: -1.46%
8,COc1ccc2nc(SCC(O)c3cccc(Br)c3)[nH]c2c1 (centres undefined),inactive: -2.05%
9,Cc1ccc(Sc2ccc(N3CCCC(C(=O)Nc4ccc(F)cc4)C3)nn2)cc1 (centres undefined),inactive: -5.29%
10,O=C(Cn1nc(N2CCN(c3ccccc3)CC2)ccc1=O)NCc1ccccc1F,inactive: 8.17%
11,CCN(CC)C(=O)CSc1nc2cc3c(cc2c(=O)n1CCCC(=O)NCc1ccc2c(c1)OCO2)OCO3,inactive: -3.46%
12,COc1ccc(-c2cn3c(n2)sc2cc(C(=O)NCCCc4ccccc4)ccc23)cc1,inactive: 8.55%
13,Cc1nn(-c2ccc(N3CCCCC3)nn2)c(C)c1CCC(=O)NCc1ccccc1,inactive: -14.7%
14,Cc1cccc(C(=O)Nc2ccccc2OCc2cc(=O)n3ccccc3n2)c1,inactive: 4.08%
15,CCOc1ccc(NC(=O)c2cn(C3CCCCC3)c(=O)c3c2c2ccccc2n3C)cc1,inactive: -15.4%
16,Cc1ccc(-c2nnc(SCC(=O)NC(C)(C)C)nc2-c2ccc(C)cc2)cc1,inactive: 3.22%
17,Cn1c(=O)c2c(nc(NCCc3ccccc3)n2Cc2ccccc2Br)n(C)c1=O,inactive: 0.568%
18,CCOc1ccc(C(=O)N(Cc2nc(-c3cccc(C)c3)no2)C(C)C)cc1,inactive: -6.39%
19,COc1ccc(-c2nc(CN3CCC(C(=O)NCc4ccc(C)cc4)CC3)c(C)o2)cc1OC,inactive: -10.9%
